Results are given in words; binding and its absence hold for the method and conditions named. Binding seen in cells or lysates may run through a third protein. Some entries that bind do so weakly or less than the wild type.
Legend:
APP695 [1] = target: APP695 (UniProt P05067); assay: co-IP; HEK293 cells co-transfected with both constructs; RIPA lysates (250 µg) precleared, incubated with protein G bead-immobilised antibody at 4°C overnight, five washes, Western blot; rabbit or mouse IgG and CFP or YFP as negative controls
[2] = target: full-length sortilin-myc/His (human) (UniProt Q99523); assay: as above
APP770-YFP (human) = APP770-YFP (human) (UniProt P05067); assay: as above
APP 1-141-YFP (human) = APP 1-141-YFP (human) (UniProt P05067); assay: as above
APP 1-287-YFP (human) = APP 1-287-YFP (human) (UniProt P05067); assay: as above
APP695 [3] = target: APP695 (UniProt P05067); assay: co-IP; competition binding assay: lysates of HEK293 cells transfected separately with APP695 or a sortilin-CFP construct; APP695 lysate pre-incubated 1 h at 4°C with competitor or control (BSA or scramble peptide, 10 µM), then combined with the sortilin lysate for 2 h at 4°C; precipitated with anti-APP, blotted with goat anti-GFP

Protein sequences, listed by entry. Tags and fused reporters are not part of them. Lines headed by an entry give the natural chain unless they say otherwise; changes in a name come on top. Residues count along the entry.
UniProt Q99523: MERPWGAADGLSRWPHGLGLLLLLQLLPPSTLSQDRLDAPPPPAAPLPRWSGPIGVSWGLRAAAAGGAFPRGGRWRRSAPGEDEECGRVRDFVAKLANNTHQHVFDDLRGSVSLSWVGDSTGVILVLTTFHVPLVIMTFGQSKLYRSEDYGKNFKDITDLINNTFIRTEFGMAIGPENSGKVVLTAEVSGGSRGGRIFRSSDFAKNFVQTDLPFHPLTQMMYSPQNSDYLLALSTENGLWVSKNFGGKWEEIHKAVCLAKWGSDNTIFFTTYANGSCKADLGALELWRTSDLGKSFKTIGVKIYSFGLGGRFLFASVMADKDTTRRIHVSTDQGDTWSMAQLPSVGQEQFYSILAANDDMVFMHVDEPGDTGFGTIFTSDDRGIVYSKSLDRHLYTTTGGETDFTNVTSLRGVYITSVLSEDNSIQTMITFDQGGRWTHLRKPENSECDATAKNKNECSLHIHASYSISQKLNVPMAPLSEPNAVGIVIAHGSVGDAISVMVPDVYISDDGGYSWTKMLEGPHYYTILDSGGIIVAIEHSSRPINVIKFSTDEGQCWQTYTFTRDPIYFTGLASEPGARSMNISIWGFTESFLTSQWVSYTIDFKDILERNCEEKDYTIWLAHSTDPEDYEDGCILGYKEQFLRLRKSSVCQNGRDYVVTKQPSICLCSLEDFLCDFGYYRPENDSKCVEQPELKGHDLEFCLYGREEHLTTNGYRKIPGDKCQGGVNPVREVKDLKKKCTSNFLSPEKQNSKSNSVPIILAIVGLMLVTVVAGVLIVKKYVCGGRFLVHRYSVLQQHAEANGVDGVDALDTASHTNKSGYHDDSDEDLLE
full-length sortilin-myc/His: residues 78-831 of Q99523
Sort 78-385-CFP: residues 78-385 of Q99523
Sort 385-786-CFP: residues 385-786 of Q99523
Sort 756-831-CFP: residues 756-831 of Q99523
Sort 779-831-CFP: residues 779-831 of Q99523

Substance | binding (APP695 [1]) | binding [2] | other results
Sort 779-831-CFP (from UniProt Q99523-1 779-831) (domain or fragment) | binds | – | –
Sort 385-786-CFP (from UniProt Q99523-1 385-786) (domain or fragment) | no binding | – | –
APP 1-287-YFP (from UniProt P05067 18-287) (domain or fragment) | – | binds | –
full-length sortilin-myc/His (from UniProt Q99523-1 78-831) | – | – | binding (APP770-YFP (human)): binds; binding (APP 1-141-YFP (human)): binds
Sort 756-831-CFP (from UniProt Q99523-1 756-831) (domain or fragment) | binds | – | –
APP 713-770-YFP (from UniProt P05067 713-770) (domain or fragment) | – | binds | –
APP 1-542-YFP (from UniProt P05067 18-542) (domain or fragment) | – | binds | –
Sort 78-385-CFP (from UniProt Q99523-1 78-385) (domain or fragment) | binds | – | binding (APP 1-287-YFP (human)): binds; binding (APP695 [3]): binds
APP 1-141-YFP (from UniProt P05067 18-141) (domain or fragment) | – | binds | –
